# Measurements as given in the supplement of paper PMC10338343.
# ± gives the standard deviation. The entries are a selection whose mix differs from that of the whole data set.
# Test system: MIWI (PIWIL1) piRISC loaded with piRNA #1 (30 nt)
# Assay: pre-steady-state target cleavage rate (min^-1); MIWI and MILI are mouse PIWI proteins and EfPiwi is from a freshwater sponge; tags in brackets are library labels; higher = faster piRNA-guided slicing of the target
# Conditions: guide: piRNA #1 5'p-UGAGGUAGUAGGUUGUAUAGUAUCCAGAGG; auxiliary factor: 500 nM mouse GTSF1
# How it was run: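 The method was Cleave-'n-Seq, in which uncleaved targets from a transcribed, DNA-blocked target RNA library were sequenced after exposure to active affinity-purified piRISC carrying one synthetic guide, with or without GTSF1 partner protein. Reactions contained 0.1 nM library, 1 nM piRISC and, where present, 500 nM GTSF1 in HEPES–potassium acetate buffer at 33 °C for 0–8 or 0–960 min. Reads were normalised to depth and to weakly complementary targets, three trials were pooled, and k3 was capped at 0.0001 min^-1. The pre-steady-state cleavage rate came from a burst-and-steady-state fit.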
row,Sequence,pre-steady-state target cleavage rate
1,GGAGACCAUACUAUACUACCUACUAGCUCA,0.35 ± 0.032
2,GGAGACCUUACUAUACAACCUACUUCGUCA,0.201 ± 0.033
3,GGAGACCUAUCUAUACAACCUACUGCCUCA,0.381 ± 0.049
4,GGAGACGUUACUAAACAACCUACUACCUCA,1.1 ± 0.095
5,GGAGUGGAUACUAUUCAACCUUCUACCUCA,0.567 ± 0.027
6,GGACUGGAUACUAUACAACCUUGUACCUCA,0.0296 ± 0.0061
7,CCUCUGGAUACUAUAGAACCUAGUACCUCA,0.0122 ± 0.0031
8,GCUCUGCAUACUAUACAACCAACUACCUCA,0.145 ± 0.015
9,GGAGAGGAUACAAUACAUCCUACUACCUCA,0.691 ± 0.031
10,GGAGACCUAUGUAUACAACCUACUACAUCA,0.241 ± 0.028
11,GGAGACGCUACUAUACAACCUACUACCUCA,1.79 ± 0.11
12,GGAGACCUAUGAUAUGUACCUACAUGGAGA [g8:g13:cont:t1A],< 0.0001
13,CCUCUGGAUACUAUACUACCUUCUACCUCA,0.281 ± 0.024
14,GCUCUGGAUACUAUUCAACCUACUACCUGA,0.811 ± 0.11
15,GGAGAGGAUACUAUACAUCCUACUACCUGA,0.0508 ± 0.014
16,GGAGACGAUACUAUACUACCAACUACCUCA,0.0376 ± 0.0067
